These results are taken from PMC6919601, “Identification of Plasmodium dipeptidyl aminopeptidase allosteric inhibitors by high throughput screening” (PLoS ONE, 2019).

About 230 (0.21%) of roughly 110,000 compounds showed an effect of 50% or more. The list shows a part of the results.
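Also: 30 min substrate incubation versus DMSO and 10 µM JCP410 controls.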

The target of this test is DPAP1 (Plasmodium falciparum, UniProt Q8IIJ9). As to the kind of experiment: primary screen, percent inhibition; read by cleavage of a fluorogenic dipeptide substrate; higher = more effect of the substance. The arrangement: species or system P. falciparum D10 trophozoite lysates; single well.
Sequence of DPAP1 (Q8IIJ9 whole entry, looked up): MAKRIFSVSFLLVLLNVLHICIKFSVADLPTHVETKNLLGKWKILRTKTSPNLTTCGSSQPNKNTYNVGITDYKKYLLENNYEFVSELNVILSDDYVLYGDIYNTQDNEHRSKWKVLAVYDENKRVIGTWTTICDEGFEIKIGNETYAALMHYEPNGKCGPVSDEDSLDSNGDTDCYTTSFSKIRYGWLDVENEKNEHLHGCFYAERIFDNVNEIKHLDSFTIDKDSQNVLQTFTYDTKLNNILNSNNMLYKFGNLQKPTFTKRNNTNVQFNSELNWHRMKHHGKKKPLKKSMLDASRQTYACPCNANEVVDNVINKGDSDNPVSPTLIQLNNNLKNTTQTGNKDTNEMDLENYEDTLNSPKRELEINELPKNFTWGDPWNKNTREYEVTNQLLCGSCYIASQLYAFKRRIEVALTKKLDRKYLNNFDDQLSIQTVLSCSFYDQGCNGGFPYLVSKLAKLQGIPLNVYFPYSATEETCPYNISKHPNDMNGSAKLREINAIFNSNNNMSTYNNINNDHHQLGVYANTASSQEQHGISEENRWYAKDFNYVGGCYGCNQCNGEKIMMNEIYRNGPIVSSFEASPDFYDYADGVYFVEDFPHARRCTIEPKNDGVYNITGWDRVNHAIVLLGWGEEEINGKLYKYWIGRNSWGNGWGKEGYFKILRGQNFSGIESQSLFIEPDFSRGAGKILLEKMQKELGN
Regarding `CCOC(=O)c1cnc(N2CCN(CC)CC2)nc1C`, the “% Inhibition @ 10 uM” value is -1.85%. With `CCOC(=O)N1CCN(C(c2ccccn2)c2ccc3cccnc3c2O)CC1` (centres unmarked) the figure was -5.32%; with `CCC(C)NC(=O)c1ccc(CS(=O)(=O)Cc2ccc(Cl)cc2)o1` (centres unmarked), -3.12%. With `COc1ccc(C2(NCc3cc(OC)ccc3OC)C(=O)c3ccccc3C2=O)cc1` the figure was -4.8%; with `COc1ccccc1C1CC(=O)CC(c2ccccc2OC)S1` (centres unmarked), 3.66%; with `Cc1cc(C)c2c(-n3cccc3)c(C(=O)NCc3ccc(F)cc3)sc2n1`, 0.623%.

For the compound `COc1cc(C2C(C#N)=C(N)Oc3cc(C)n(Cc4cccnc4)c(=O)c32)ccc1O` (centres unmarked), the “% Inhibition @ 10 uM” value is -1.11%. With `O=C(Nc1cccc(Cl)c1)C(=O)NC1CCCC1` the figure was -0.414%; with `CCCCN(C)Cc1ccc([N+](=O)[O-])cc1`, -3.57%; with `Nc1nc(-c2ccc(Cl)cc2)nn1S(=O)(=O)c1ccccc1`, 4.22%. Take `O=C(C1=C(O)C(=O)N(CCCn2ccnc2)C1c1ccccc1)c1ccc2c(c1)OCCO2` (centres unmarked): the “% Inhibition @ 10 uM” value came to 15.7%. With `O=C1OC(c2ccc3c(c2)OCO3)=N/C1=C\c1ccc(Cl)cc1Cl` the figure was 4.54%. As for `Cc1nnc(SCc2ccc(F)cc2)nc1O`, the “% Inhibition @ 10 uM” value amounted to 3.62%. Next, `Cc1ccc(S(=O)(=O)c2nc(S(C)(=O)=O)sc2N2CCN(Cc3ccccc3)CC2)cc1`: -0.522%. With `CC(C)C[C@H](NC(=O)OCc1ccc2c(c1)OCO2)C(=O)NCC#N` the figure was 3.19%. With `CN(C)S(=O)(=O)c1cccc(N)c1`, the “% Inhibition @ 10 uM” value was -1.5%. As for `COc1ccccc1/C=C1\S/C(=N/c2cccc(C(=O)O)c2)N(C)C1=O`, the “% Inhibition @ 10 uM” value was determined as 8.72%. Next, `N=C1/C(=C\c2ccc(SCc3ccco3)o2)C(=O)N=C2SC(COc3ccccc3)=NN12`: 1.93%. Next, `CCOc1ccc(-c2cc(NC(=O)NCc3noc4ccccc34)on2)cc1`: 3.51%; `CCCCn1c(NCc2ccncc2)nc2ccccc21`: 0.843%. With `CN1C(=O)S/C(=C\c2cn(Cc3ccccc3F)c3ccccc23)C1=O` the figure was -1.26%; with `COc1cc(OC)c(-c2nnc3n(Cc4ccccc4Cl)c(=O)c4ccccc4n23)cc1OC`, -3.51%; with `O=C(CSc1nc(O)c2c3c(sc2n1)CCCC3)NCCCN1CCOCC1`, 1.39%. Turning to `CCOC(=O)c1c(C)[nH]c(C)c1S(=O)(=O)NCCc1ccc(C)cc1`, the “% Inhibition @ 10 uM” value was determined as 1.23%. Next, `Cc1ccccc1CNC(=O)CCc1cn(C)c2ccccc12`: 2.49%. With `CCOC(=O)N1CCN(Cc2nc3c(c(=O)[nH]c(=O)n3C)n2C(C)C(C)=O)CC1` (centres unmarked) the figure was -6.52%. Next, `O=C(O)CS(=O)(=O)c1ccc2ccccc2c1`: -0.216%; `CCN(CC)c1ccc(NC(=O)c2ccc3c(c2)OCO3)cc1`: 0.163%.

As for `CCc1nnc(SCC(=O)N(C)C2CCCCC2)c2cc3sccc3n12`, the “% Inhibition @ 10 uM” value is -1.38%. Turning to `Cc1ccc2nc(O)c3cc(C(=O)N4CCOCC4)sc3c2c1`, the “% Inhibition @ 10 uM” value worked out at 4.22%. Consider `CCOC(=O)c1c(N)sc2c1CCC(CC)C2` (centres unmarked), for which the “% Inhibition @ 10 uM” value is given as 16.6%.

For the compound `Cc1sc2c(c1C)c(=O)n(CCc1ccccc1)c(=O)n2CC(=O)NCc1ccco1`, the “% Inhibition @ 10 uM” value turned out to be 6.32%.

In the case of `O=C1S/C(=C\c2ccccc2)C(=O)N1Cc1ccc(F)cc1`, the “% Inhibition @ 10 uM” value is -6.57%. Next, `CCOC(=O)c1c(C)[nH]c(C)c1S(=O)(=O)NC(C)CC` (centres unmarked): 5.39%. Next, `COc1cccc(CN2CCN(Cc3ccc(C(F)(F)F)cc3)CC2)c1`: -3.13%; `O=C(O)c1ccc(CNC(=O)C2CCC2)cc1`: -1.11%. Next, `Cc1cc(C)c(C(=O)Nc2ccc3[nH]c(O)nc3c2)c(C)c1`: -3.74%; `CC(NC(=O)CN1CCN(Cc2ccc(Cl)cc2)C1=O)c1ccccc1` (centres unmarked): -0.984%; `COc1ccccc1-c1nnc2sc(-c3ccc4c(c3)OCCO4)nn12`: 2.68%. Turning to `O=C(/C=C/c1cn(CC(O)CN2CCCCC2)c2ccccc12)c1ccccc1` (centres unmarked), the “% Inhibition @ 10 uM” value was -1.74%.

As for `O=C(C1=C(O)C(=O)N(CCc2c[nH]c3ccccc23)C1c1cccnc1)c1ccc(Cl)cc1` (centres unmarked), the “% Inhibition @ 10 uM” value was -7.77%.

For `O=C(Nc1ccccc1C(=O)Nc1ccccc1)c1ccc(-c2ccccc2)cc1`, the “% Inhibition @ 10 uM” value was 1.13%. With `COc1ccc(C(C)C)cc1S(=O)(=O)N1CCN(C)CC1` the figure was -0.123%. Next, `CC1CN(C(=O)Nc2ccccc2)/C(=N/Cc2ccccc2)S1` (centres unmarked): -5.95%. Next, `Cc1nn(-c2ccc(F)cc2)c(O)c1/C=N/c1cccc(Br)c1`: -2.16%; `COCC(C)NC1CCCCC1OC` (centres unmarked): 4.38%; `CCOc1cc(C2C(C#N)=C(N)Oc3[nH]nc(C)c32)ccc1O` (centres unmarked): 5.24%. On to `N=C1/C(=C\c2ccc(Br)cc2)C(=O)N=C2SC(N3CCOCC3)=NN12`, for which the “% Inhibition @ 10 uM” value was -3.44%. As to `C#CCN1C(=O)S/C(=C/c2ccc(OC)cc2C)C1=O`, the “% Inhibition @ 10 uM” value was -5.34%. With `Cc1nc(SCC2=C(C(=O)OC(C)C)C(c3ccccc3)C(C#N)=C(N)O2)c(C#N)c(C)c1C` (centres unmarked) the figure was 7.98%; with `Cc1cc(C)c(NC(=O)CSc2nc(C)cc(O)n2)c(C)c1`, 4.83%; with `Fc1ccc(CN2CCN(Cc3ccccc3)CC2)c(F)c1`, 3.1%. With `Cc1nc2ccccc2n1CCc1nc2c3ccccc3nc(NCc3ccc(F)cc3)n2n1` the figure was -2.42%. With `CCCSc1cc(N2CCN(C)CC2)nc(-c2ccc(OC)cc2)n1` the figure was 2.27%; with `COc1cc(OC)cc(C(=O)Nc2nc(-c3ccc(Br)cc3)cs2)c1`, -3.02%. For `O=C(NCc1ccco1)C1C2/C=C\CCCCC21` (centres unmarked), the “% Inhibition @ 10 uM” value is -3.01%. Take `CCOC(=O)c1cc(S(=O)(=O)NC2CCCCCC2)cn1C`: the “% Inhibition @ 10 uM” value is -1.06%.

`Cc1ccc(C2C(C#N)=C(N)Oc3ccc4ccc(O)cc4c32)cc1` (centres unmarked): the “% Inhibition @ 10 uM” value is 3.46%. As for `COc1ccccc1C(O)c1nc2ccccc2n1C(C)C` (centres unmarked), the “% Inhibition @ 10 uM” value amounted to 1.72%. With `Cc1cccn2c(=O)c(/C=C(\C#N)C(=O)NCc3ccco3)c(Oc3ccccc3Cl)nc12` the figure was 0.315%; with `COc1ccc(Br)cc1/C=C/C(=O)c1cccs1`, -1.32%; with `COC(=O)c1ccc(C2c3c(oc4cc(C)c(C)cc4c3=O)C(=O)N2CCCN2CCOCC2)cc1` (centres unmarked), -1.11%. Next, `Cc1nn(CC(=O)N(C)Cc2ccccc2)c(=O)c2nn(-c3ccccc3)c(C)c12`: 2.48%.

Turning to `Cc1ccc(Cn2c(C)c(CNCc3ccc4c(c3)OCO4)c(C(=O)O)c2C)cc1`, the “% Inhibition @ 10 uM” value is reported as 1.41%. As for `CCC(=O)NCCCc1nc2ccccc2n1Cc1ccc(Cl)cc1`, the “% Inhibition @ 10 uM” value is 2.73%. Next, `Nc1c(C(=O)Nc2ccccc2C(F)(F)F)sc2nc3c(cc12)CCC3`: -6.2%. For the compound `O=C(CCS(=O)(=O)Cc1ccccc1F)NCc1ccc(F)cc1`, the “% Inhibition @ 10 uM” value was -1.21%. On to `C1=C(N2CCCCC2)Cc2ccccc21`, for which the “% Inhibition @ 10 uM” value was -0.988%.

As for `COc1ccc(C(=O)N2CCN(Cc3c[nH]c4ccccc34)CC2)cc1OC`, the “% Inhibition @ 10 uM” value is listed as -3.4%. Next, `CN1CCC(NCCc2cccc(F)c2)CC1`: -5.11%; `OC1c2ccccc2CCc2sccc21` (centres unmarked): -2.87%. For `CCOc1ccc(N2C(=O)CC(N3CCCCC3CC)C2=O)cc1` (centres unmarked), the “% Inhibition @ 10 uM” value is listed as -1.74%. With `CC1CCCCN1C(=O)Cn1ncc2c3ccccc3nc-2c1O` (centres unmarked) the figure was 2.59%. Take `Cc1cccc(OCc2nc(C#N)c(NCCc3ccccc3)o2)c1`: the “% Inhibition @ 10 uM” value is -1.98%.

For the compound `CCOC(=O)N1CCN(CC(O)COc2cc(C)ccc2C)CC1` (centres unmarked), the “% Inhibition @ 10 uM” value is -5.35%. In the case of `O=C(Nc1ccccc1C(=O)O)c1ccc(C(=O)Nc2ccccc2C(=O)O)cc1`, the “% Inhibition @ 10 uM” value is listed as -1.91%. Next, `COc1ccc(S(=O)(=O)N(CC(=O)N2CCCCC2)c2ccc(Cl)cc2)cc1`: -0.473%; `COc1cc(C)c(CNc2cc(C)cc(C)c2)cc1C`: -8.04%. With `Cc1c2cnn(CC(=O)N3CC(C)CC(C)C3)c(=O)c2c(C)n1Cc1ccccc1` (centres unmarked) the figure was -0.447%; with `COCc1cc(C)nc2sc(C(=O)N3CCN(C)CC3)c(N)c12`, 6.49%. With `Cc1ccc2[nH]c(C)c(CCC(N)=O)c2c1` the figure was -2.51%; with `COc1cc(C=C2C(=O)NC(=O)NC2=O)cc(OC)c1O`, 5.91%; with `CC(=O)c1c(O)c2cccc3c2n(c1=O)CCC3`, -5.35%. As for `Cc1ccccc1C(=O)N(Cc1ccccc1)C(C)C`, the “% Inhibition @ 10 uM” value was 5.43%.

Turning to `O=C(CN1CCCCC1)Nc1nc(-c2ccc(Br)cc2)cs1`, the “% Inhibition @ 10 uM” value was -0.687%. As for `CC1(C)CC(=O)C2=C(C1)OC(N)=C(C#N)C2c1ccoc1` (centres unmarked), the “% Inhibition @ 10 uM” value is recorded as -0.591%. On to `CC(=O)c1ccc(NC(=O)c2cc3nc4c(c(C(F)(F)F)n3n2)CCCC4)cc1`, for which the “% Inhibition @ 10 uM” value is reported as -3.26%.

For `O=c1[nH]c2ccccc2c(=O)n1CCSc1ccccn1`, the “% Inhibition @ 10 uM” value was -2.8%. With `CC1CC(C)CN(C(=O)c2cn(C3CCCC3)c(=O)c3c2c2ccccc2n3C)C1` (centres unmarked) the figure was 1.85%; with `CCc1ccc2nc(N3CCC(C(=O)NCc4cccs4)CC3)sc2c1`, 1.07%; with `O=C(O)CCCCCN1C(=O)C2CC=CCC2C1=O` (centres unmarked), -2.8%. As to `N#C/C(=C\c1ccc([N+](=O)[O-])o1)c1nc(-c2ccc(-c3ccccc3)cc2)cs1`, the “% Inhibition @ 10 uM” value was -0.693%. With `Cc1ccc(NC(=O)C(C)Oc2ccccc2C)c(C)c1` (centres unmarked) the figure was 6.79%. For the compound `O=C(c1cccs1)N1CCN(Cc2ccc3c(c2)OCO3)CC1`, the “% Inhibition @ 10 uM” value is reported as 1.57%.

As for `O=C(c1ccccc1)c1ccc2nc(NCCCN3CCOCC3)c3nncn3c2c1`, the “% Inhibition @ 10 uM” value was 9.5%. With `COc1ccc(C(=O)N2CCN(Cc3ccccc3F)CC2)cc1OC` the figure was -11.9%; with `CCC(=O)N1c2ccccc2N=C2CC(c3ccccc3)CC(O)=C2C1c1ccco1` (centres unmarked), -0.988%; with `CCC1CCCCN1CCCNC(=O)c1ccc2c(c1)c(C)c(C)n2C` (centres unmarked), -3.39%. On to `CC(=O)N/C(=N\OCc1ccc(Br)cc1)c1nonc1NC(C)=O`, for which the “% Inhibition @ 10 uM” value was -1.47%. With `COc1ccccc1Nc1cc(C)nc2ccccc12` the figure was -8.33%.

Regarding `Cc1cc(Cl)cc(C)c1OCCOCCN1CCNCC1`, the “% Inhibition @ 10 uM” value amounted to 2.95%.
